In ChEMBL document CHEMBL1201862, “PubChem BioAssay data set” (2004):

test system: NCI-H322M; experiment: NCI-60 cell line screen, 48 h

**Q.** For `COc1cccc(-c2cc(O)c3cc(N4CCN(C)CC4)ccc3n2)c1`, which GI50 is on record?
**A.** The GI50 was inactive: 5.04 µM.

**Q.** Which GI50 does the source give for `O=C(CC1Sc2ccccc2NC1=O)Nc1ccccc1[N+](=O)[O-]` (stereo unspecified) here?
**A.** Its GI50 is inactive: > 100 µM.

**Q.** `Cn1c(=S)c2nc(SCc3cccnc3)[nH]c2n(C)c1=O` was tested. Which GI50 did it give?
**A.** The GI50 was inactive: > 100 µM.

**Q.** For `CN(Cc1cc(Cl)cc(Cl)c1O)Cc1c(O)ccc2ccccc12`, which GI50 is on record?
**A.** Its GI50 is inactive: 19 µM.

**Q.** How did the GI50 turn out when `COc1ccc(/C=C(\C#N)c2ccccn2)cc1OC` was run?
**A.** The GI50 was inactive: 70.6 µM.

**Q.** With `COc1ccc(C(c2ccccc2)N2C(=O)CCC2C(=O)O)cc1OC` (stereo unspecified) as the molecule, how does the GI50 read?
**A.** The GI50 was inactive: > 100 µM.

**Q.** Which GI50 does the source give for `COc1ccc(C2(C3c4cc(OC)c(OC)cc4CCN3C)SCCCS2)cc1O` (stereo unspecified) here?
**A.** Its GI50 is inactive: > 100 µM.

**Q.** With `Cc1cc(C)nc(NC(=S)Nc2ccc([N+](=O)[O-])cc2)c1` as the molecule, how does the GI50 read?
**A.** Its GI50 is inactive: > 100 µM.

**Q.** How did the GI50 turn out when `CC(C)(C)c1cc(C(=O)/C=C/c2c(Cl)cccc2Cl)cc(C(C)(C)C)c1O` was run?
**A.** Its GI50 is inactive: 35.9 µM.

**Q.** Which GI50 does the source give for `CC1CCC2(CC1)N=C1CCC(C)CC1C1(CCC(C)CC1)N2` (stereo unspecified) here?
**A.** The GI50 was inactive: > 100 µM.

**Q.** `Cc1oc2c(cc(O)c3ccccc32)c2cccc1-2` was tested. Which GI50 did it give?
**A.** The GI50 was inactive: 92.5 µM.

**Q.** With `CC(C)CCCC(=O)CCCCCCC(=O)CCN(O)C(=O)C(N)CO` (stereo unspecified) as the molecule, how does the GI50 read?
**A.** The GI50 was inactive: 16.9 µM.

**Q.** How did the GI50 turn out when `Cc1cc(OCc2nnc3sc(NC(=O)c4ccccc4)nn23)ccc1Cl` was run?
**A.** Its GI50 is inactive: 47.5 µM.

**Q.** Which GI50 does the source give for `O=c1oc(C(C(F)(F)F)C(F)(F)F)nc2ccccc12` here?
**A.** The GI50 was inactive: > 100 µM.

**Q.** Which GI50 does the source give for `C[N+](C)(C)c1ncnc2c1ncn2C1CCCCO1` (stereo unspecified) here?
**A.** The GI50 was inactive: > 100 µM.

**Q.** Which GI50 does the source give for `CC(=O)O[C@@H]1CN(S(=O)(=O)c2ccc(C)cc2)C[C@@H]1C1CCCCC1` here?
**A.** The GI50 was inactive: 35.8 µM.

**Q.** With `C=CCC12CC(=O)CCC1CC(=O)C2` (stereo unspecified) as the molecule, how does the GI50 read?
**A.** The GI50 was inactive: > 100 µM.

**Q.** With `COC(=O)/C(=C\c1cn(C(C)=O)c2ccccc12)P(=O)(OC)OC` as the molecule, how does the GI50 read?
**A.** Its GI50 is inactive: 18 µM.

**Q.** How did the GI50 turn out when `Cc1cc(O)c2c(c1)C(C1c3cccc(O)c3C(=O)c3c(O)cc(C)cc31)c1cccc(O)c1C2=O` (stereo unspecified) was run?
**A.** The GI50 was active: 0.914 µM.

**Q.** How did the GI50 turn out when `CC(=O)O[C@H]1[C@@H](N2CCN(C)CC2)C[C@H]2[C@@H]3CC=C4C[C@@H](N5CCCC5)CC[C@]4(C)[C@H]3CC[C@@]21C` was run?
**A.** The GI50 was inactive: 49.3 µM.

**Q.** With `CS(=O)(=O)OC1CCC2(C#N)CCC1C2=O` (stereo unspecified) as the molecule, how does the GI50 read?
**A.** The GI50 was inactive: > 100 µM.

**Q.** Which GI50 does the source give for `CC(=O)O[C@H]1C[C@H]2[C@@H](OC(C)=O)/C=C3\C[C@](C)(C(=O)[C@H](O)C(=C1C)C2(C)C)[C@@H](O)C[C@@H]3OC(=O)[C@H](O)[C@H](c1ccccc1)N(C)C` here?
**A.** The GI50 was inactive: > 100 µM.

**Q.** For `Cc1cc(N(CCC#N)CCC#N)ccc1/C=N/NC(=O)c1ccccc1`, which GI50 is on record?
**A.** The GI50 was inactive: 31.8 µM.

**Q.** With `OCCCc1cnco1` as the molecule, how does the GI50 read?
**A.** The GI50 was inactive: > 100 µM.

**Q.** `Cn1c2c(c3ccccc31)CCN1C(=O)C34CCCC3CC21S4` (stereo unspecified) was tested. Which GI50 did it give?
**A.** The GI50 was inactive: > 100 µM.

**Q.** With `COc1ccc(CCNC(=O)Cc2ccccc2CCO)cc1OC` as the molecule, how does the GI50 read?
**A.** The GI50 was inactive: > 100 µM.

**Q.** Which GI50 does the source give for `C=C1C(=O)O[C@H]2[C@H]3O[C@@H](C[C@@H]12)[C@@]1(C)CC[C@H](O1)[C@H](C)CCC[C@H]3C` here?
**A.** Its GI50 is inactive: 3.56 µM.

**Q.** Which GI50 does the source give for `C/C=C1/CN2CCC34C(=C(C(=O)OC)C1CC23)Nc1ccc(O)cc14` (stereo unspecified) here?
**A.** The GI50 was inactive: > 100 µM.

**Q.** `COC(=O)CP1(=O)OC2C(C3CCC2(C)C3(C)C)N1c1cc(C(F)(F)F)cc(C(F)(F)F)c1` (stereo unspecified) was tested. Which GI50 did it give?
**A.** The GI50 was inactive: 31.1 µM.

**Q.** With `N#C[C@H](c1nc2ccccc2[nH]1)c1nc2ccccc2nc1Cl` as the molecule, how does the GI50 read?
**A.** Its GI50 is inactive: 4.65 µM.

**Q.** With `Cc1cccc(Nc2nc3ccccc3nc2NS(=O)(=O)c2ccc(N)cc2)c1` as the molecule, how does the GI50 read?
**A.** The GI50 was inactive: 43 µM.

**Q.** `C=C1C(=O)OC2C1C(OC(=O)/C(C)=C/C)CC(O)(CCl)C1C(O)C=C(C)C21O` (stereo unspecified) was tested. Which GI50 did it give?
**A.** The GI50 was inactive: 30.7 µM.

**Q.** `O=C(c1ccccc1)C1C(c2ccccc2)N1S(=O)(=O)c1ccccc1` (stereo unspecified) was tested. Which GI50 did it give?
**A.** Its GI50 is inactive: > 100 µM.

**Q.** How did the GI50 turn out when `COC(=O)C1=C(C(=O)OC)C2(C)Nc3ccccc3C2=C(c2ccccc2)C1` (stereo unspecified) was run?
**A.** Its GI50 is inactive: 19.7 µM.

**Q.** For `CCN(CC)c1ccc(C2N3CCCCC3[C@@H]3c4[nH]c5ccccc5c4CCN23)cc1` (stereo partly specified), which GI50 is on record?
**A.** The GI50 was inactive: 50.4 µM.

**Q.** How did the GI50 turn out when `NC(Cc1cc(I)c(O)c(I)c1)C(=O)O` (stereo unspecified) was run?
**A.** The GI50 was inactive: > 500 µM.

**Q.** With `COc1ccc(C2=NN(c3ccccc3)C(c3cc4cc(Br)ccc4nc3Cl)C2)cc1` (stereo unspecified) as the molecule, how does the GI50 read?
**A.** Its GI50 is inactive: > 25 µM.

**Q.** Which GI50 does the source give for `COc1ccc2oc3c(C)cc4c(OC)nnc(OC)c4c3c2c1` here?
**A.** Its GI50 is inactive: 75.3 µM.

**Q.** For `CC(C)C(=O)Oc1cc2c(=O)oc3c(OC(=O)C(C)C)c(OC(=O)C(C)C)cc4c(=O)oc(c1OC(=O)C(C)C)c2c34`, which GI50 is on record?
**A.** Its GI50 is inactive: > 100 µM.

**Q.** Which GI50 does the source give for `S=C(N/N=C/c1ccccc1)NC12CC3CC(CC(C3)C1)C2` here?
**A.** The GI50 was inactive: > 100 µM.

**Q.** `O=C(CC(=O)C1CCOC1=O)C(=O)Nc1cccc(Cl)c1` (stereo unspecified) was tested. Which GI50 did it give?
**A.** Its GI50 is inactive: > 100 µM.

**Q.** How did the GI50 turn out when `Nc1nc(Cl)cc(NCC2(CO)CCC(OCc3ccccc3)C2)n1` (stereo unspecified) was run?
**A.** The GI50 was inactive: 12.2 µM.

**Q.** How did the GI50 turn out when `CC(C)NCC(O)COC(=O)c1cccs1` (stereo unspecified) was run?
**A.** Its GI50 is inactive: > 100 µM.

**Q.** Which GI50 does the source give for `CCOC(OC1=C(C#N)CCCC1)C(CC)[Se]c1ccccc1[N+](=O)[O-]` (stereo unspecified) here?
**A.** Its GI50 is inactive: > 100 µM.

**Q.** `COC(=O)C(C)(C)OCc1ccc(C2NC(=O)N(c3cccc(Cl)c3)C(=O)N2c2cccc(Cl)c2)cc1` (stereo unspecified) was tested. Which GI50 did it give?
**A.** Its GI50 is inactive: > 100 µM.

**Q.** How did the GI50 turn out when `CN(C)CCCNC(=O)c1cc(NC(=O)c2cc(NC(=O)c3cc(NC(=O)CCCn4ccc(CO)c4CO)cn3C)cn2C)cn1C` was run?
**A.** The GI50 was inactive: 30.4 µM.

**Q.** How did the GI50 turn out when `CC(=O)OC1=NN=C2COC(c3ccccc3OC(C)=O)=NN2C1` was run?
**A.** The GI50 was inactive: > 50 µM.

**Q.** Which GI50 does the source give for `CC12CCCCC1=C(F)C(F)(F)S2` (stereo unspecified) here?
**A.** Its GI50 is inactive: 98.2 µM.

**Q.** How did the GI50 turn out when `NNC(=O)Nc1cccnc1` was run?
**A.** The GI50 was inactive: > 100 µM.

**Q.** With `CCC(=O)N(c1ccccc1)C(C)CN1CCC(O)(c2cccc(C(F)(F)F)c2)CC1` (stereo unspecified) as the molecule, how does the GI50 read?
**A.** Its GI50 is inactive: 21.4 µM.

**Q.** Which GI50 does the source give for `Cc1c(Cl)cccc1N1C(=O)C(Cl)=C(Cl)C1=O` here?
**A.** Its GI50 is inactive: > 100 µM.

**Q.** How did the GI50 turn out when `O=C(CCc1ccccc1)CC1OC(=O)C(Cl)=C1Cl` (stereo unspecified) was run?
**A.** The GI50 was inactive: 18.7 µM.

**Q.** Which GI50 does the source give for `CC(=C(C(=O)O)C(=O)O)c1cc(-c2cccs2)cc(-c2ccc(Cl)cc2)c1O` here?
**A.** The GI50 was inactive: 18.1 µM.

**Q.** For `O/N=C1/CC2(N3CCOCC3)C3CC/C(=N\O)C2CC1(Cc1ccccc1)C3` (stereo unspecified), which GI50 is on record?
**A.** Its GI50 is inactive: > 100 µM.

**Q.** With `Cc1nc2ccccc2cc1C[N+]12CN3CN(CN(C3)C1)C2` as the molecule, how does the GI50 read?
**A.** Its GI50 is inactive: 22.8 µM.

**Q.** How did the GI50 turn out when `CCC1CN2CCc3cc(OC)c(OC)cc3C2CC1CC1c2cc(OC)c(OC)cc2CCN1C(=O)C(N)Cc1ccccc1.[O-][Cl+3]([O-])([O-])O` (stereo unspecified) was run?
**A.** The GI50 was inactive: 1.75 µM.

**Q.** How did the GI50 turn out when `CCOC(=O)C1=c2[nH]c3cccc4cccc(c43)n2C(=O)CC1` was run?
**A.** The GI50 was inactive: > 100 µM.

**Q.** For `CO[C@H]1O[C@@H]2OC3(C)CCC4[C@H](C)CCC([C@H]1C)[C@]42OO3` (stereo partly specified), which GI50 is on record?
**A.** The GI50 was inactive: > 100 µM.

**Q.** Which GI50 does the source give for `COc1cc(/C=C/C(=O)OCC23CC[C@@]4(C(=O)O)CCC(C)[C@H](C)C4C2=CCC2[C@@]4(C)CC[C@H](O)C(C)(C)C4CC[C@]23C)ccc1O` (stereo partly specified) here?
**A.** The GI50 was inactive: 19.4 µM.

**Q.** Which GI50 does the source give for `CC(C)(C1=NC(C(C)(C)C)CO1)C1=N[C@@H](C(C)(C)C)CO1` (stereo partly specified) here?
**A.** Its GI50 is inactive: > 100 µM.

**Q.** `COc1cccc(-c2cc(O)c3ccccc3n2)c1` was tested. Which GI50 did it give?
**A.** Its GI50 is inactive: 5 µM.

**Q.** `c1nc(OCC2CCCCC2)c2nc[nH]c2n1` was tested. Which GI50 did it give?
**A.** The GI50 was inactive: 88.1 µM.

**Q.** With `Cc1c2ccncc2c(C)c2c1[nH]c1ccc(O)c(OCC(F)(F)F)c12` as the molecule, how does the GI50 read?
**A.** Its GI50 is inactive: 5.86 µM.

**Q.** Which GI50 does the source give for `CN(C)c1ccc(/C=C2\CNC/C(=C\c3ccc(N(C)C)cc3)C2=O)cc1` here?
**A.** Its GI50 is inactive: 19 µM.

**Q.** `Cc1ccc2c(O)cc(-c3cccc(Cl)c3)nc2n1` was tested. Which GI50 did it give?
**A.** Its GI50 is active: 0.0352 µM.

**Q.** `C=CCOc1cccc(C2(O)c3ccccc3C3=NCCCN32)c1` (stereo unspecified) was tested. Which GI50 did it give?
**A.** Its GI50 is inactive: 12.7 µM.

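Following 48 hours of exposure in 96-well plates, responses at five concentrations were used to interpolate endpoints linearly. GI50 is the concentration that inhibits growth by half.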 Calls of active or inactive are those of the source. Cut-off read from the data, not from the text of the source: active = GI50 up to about 1.1 µM and inactive = higher.
